Test results as given in the RNAGym collection of RNA variant scans (doi:10.1093/nar/gkz1192).
Read counts are not given, so values of variants with three or more changes are uncertain.

B1: CPEB3 Ribozyme (parent)
chain: UAACAGGGGGCCACAGCAGAAGCGUUCACGUCGCAGCCCCUGUCAGAUUCUGGUGAAUCUGCGAAUUCUGCUGUAUAUCUC

Variants of: B1
Assay: self-cleavage, relative activity (ratio to wild type); higher = more cleavage; in vitro, sequencing
Procedure, shortened: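 Relative activity compares each variant's cleaved/total read fraction with that of the unmutated ribozyme. To get these fractions, barcoded CPEB3 ribozyme libraries from rounds of error-prone PCR were transcribed with T7 RNA polymerase for 5 hours at 37°C and then given 15 min of DNase I treatment before EDTA was added. The RNAs were reverse transcribed with template switching and sequenced on Illumina, and DNA sequencing linked barcodes to variants. A minimum of 5 reads applied, and three batches were averaged.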

Variant	self-cleavage
UAGCAGGGGGCCACAGGGGAAGCGUUCACGUCGCAGCCCCUGUCGGAUUCUGGUGUAUCUGCGAAUUCUGCUGUAUGUCUC [A3G C17G A18G A45G A56U A77G]	0.07
UAGCAGGGGGCCACAGUAGAAGCGUUCACGUCGCAGCCCCCGUCAGAUUCUGGUGAAUCUGCGGAUUCUGCUGUAUAUCUC [A3G C17U U41C A64G]	0.32
UAGCAGGGGGCCACAGCAGAAGCGUUCACGUCGCAGCCCAUGACAGAUUCUGGUGUAUCUGCGAAUUCUGCUGUAUAUCUC [A3G C40A U43A A56U]	0.09
UAGCAGGGGGCCACAGUAGAAGCGUUCACGUCGCGGCCCCUGUCAGAUUCUGGUGAAUCUGCGAAUUCUGCUGUACAUCUC [A3G C17U A35G U76C]	1.05
UAGCAGGGGGCCACAGCAGAAGUGUUCACGACGCAGCCCCCGUCAGAUUCUGGUGAAUCUGCGAAUUCUGCUGUACAUCUC [A3G C23U U31A U41C U76C]	0.65
UAGCAGGGGGCCAUAGCACAAGCGUUCACGUCGCAGCCCCUGUCAGAUUCUGGUGAAUCUGCGAAUUCUGCUGUACAACUC [A3G C14U G19C U76C U78A]	0.49
UAGCAAGGGGCCACAGCGGAAGCGUUCACGUCGCAGCCCCUGUCAGAUUCUGGUAAAUCUGCGAAUCCAGCUGUAUAUCUC [A3G G6A A18G G55A U67C U69A]	0.05
UAGCAGGGGGCCACAGCAGAAGCGUUCACGUCGGAGCCCCCGUCAGAUUCUGGUUAAUCUGCGGAUUCUGCUGUAUACCUC [A3G C34G U41C G55U A64G U78C]	0.1
UAGCAGGGGGCCAAAGCAGAAGCGUUCACGUCGCACCCCCAGUCAGAUUCUGUUGAAUCUGUGAAGUCUGCUGUAUAUCUC [A3G C14A G36C U41A G53U C62U U66G]	0.17
UAGCAGGGGGCCACAGCAGAAGCGUUCACGUAGCAGCCACUGUCAGAUUCUGGUGAAUCCGCGAAUCCUGCUGUAUACCUC [A3G C32A C39A U60C U67C U78C]	0.09
UAGCAGGGGGCCACAGCAGAAGUGAUCUCGUCGCAGCCCCUGUCAGAUUCUGGUGAAUCAGCGAAUUCUGCUGUAUAUCUC [A3G C23U U25A A28U U60A]	0.07
UAGCAGGGGGCCAUAGCAGAGGCGUUCACGUCGCAGCCCCUGUCGGAUUCUGGUGAAACUGCGAAUUCUGCUGUAUAUCUC [A3G C14U A21G A45G U58A]	0.11
UAGCAGGGGGCCACAGCAGAAGAGUUCACGUCGCAGCCCCUGUCAGAUUCUGGUGAAUCUGCGUAUUCUGCUGUAUAUCUC [A3G C23A A64U]	0.08
UAGCAAGGGGCCACCGCAGAAGCGUUCACGUCGCAGCCCCUGUCAGAUUCUGGUGAAUCUGCGGAUUCUGCUGUAUAUCUC [A3G G6A A15C A64G]	0.6
UAGCAGGGGGCCACAGCAGAAGCGUUCACGUCGCAGCCCCUGUCAGAUUCUGGUGAAUCUGAUAAUUCUGCUGUAUAUCUC [A3G C62A G63U]	0.54
UAGCAGGGGGCCACAGCAGAAGAGUUCACGUCGCAGCCCCUGUCAGAUUCUGGUGAGUCUGCGAAUUCUGCUGUAUAUCUC [A3G C23A A57G]	0.2
UAGCAGGGGGCCACAGCAGAAGUGUUCACGUCGCAGCCCCUGUCAGAUUCUGGGGAAUCUGCGAAUUCUGCUGUAUAUCUC [A3G C23U U54G]	0.5

Variant	self-cleavage
UAGCAUGGGGCCUCAGCAGAAGCGUUCACGUCGCGGCCCCUGUCAGAUUCUGGUGAAUCUGCGAAUCCUGCUGAAUAUCUC [A3G G6U A13U A35G U67C U74A]	0.25
UAGCAGGGGGCCACAGGAGAAGCGCUCAAGUCGCAGCCCCUGUCAGAUUCAGGUGAAUCUGCGAACUCUGCUGUAUAUCUC [A3G C17G U25C C29A U51A U66C]	0.08
UAGCAGGGGGCUACAGCAGAAGCGUUCACGCCGUAGCCCCUGUCAGAUUCUGGUGGAACUGCGAAAUCUGCUGUAUAUCUC [A3G C12U U31C C34U A56G U58A U66A]	0.04
UAGCAGGGGGCCACAGUAGAAGCGUUCACGUCGCGGCCCCUGUCAGAUUCUGGUGAAACUGCGAAUUCUGCUGUAUAUCUC [A3G C17U A35G U58A]	0.98
UAGCAGGGGGCCACAGCAGAAGCGUUCACGUCGCAGCCCCUGUCAGAUUCUGGUGAAUUUGCGAAUUCUACGGUAUAUCUC [A3G C59U G70A U72G]	0.17
UAGCAGGGGGCCACAGCAGAAGCGUUGACGUCGCAGCCCCCGUCAGAUUCUGGAGAAUCUGCGACUUCCGGUGUAUAUCUC [A3G C27G U41C U54A A65C U69C C71G]	0.14
UAGCAGGGGGCCACAGCAGAAGCGUUCACGUCGCAGCGCCUGUCAGAUUCCGGCGAAUCUGCGAAUUCAGCUGUUUAUCUC [A3G C38G U51C U54C U69A A75U]	0.25
UAGCAGGGGGCCACAGCAGAAGCGUUCACGUCGCAGCCCCUGUUGGAUUCUGGUGAAUCUGCGAAUUCAGCUGUAUAUCUC [A3G C44U A45G U69A]	0.35
UAGCAGGGGGCCACAGCAGAAGCGUUCAUGUCGCAGCCCCCGUCAGAUUCUGGUGAAUCUGCGAAACCUGCUGCAUAUCUC [A3G C29U U41C U66A U67C U74C]	0.13
UAGCAGGGGGCCACAGCAGAAGCGUUCAUGUCGCAGCCCCUGCCAGAUUCUGGUGAGUCCGCGGAUUCUGCUGUAUAUCUC [A3G C29U U43C A57G U60C A64G]	0.07
UAGCAGGGGGCCACAGCAGAAGCGUUCACGUCGCAGUCCCCGUCGGAUUCUGGUGAAUCUGCAAAUUCUGCUGUAUAUCUC [A3G C37U U41C A45G G63A]	0.51
UAGCAGGGGGCCACAGUAGACGCGUUCACGCCGCGGCCCCUGUCAGAUUCUGGAGAAUCUGCGAAUUCUGCUGUAUAUCUC [A3G C17U A21C U31C A35G U54A]	0.12
UAGCAGGGGGCCACAGCAGAAGCGUUCACGUCGCAGCCCCUGUCAGAUUGUGGUGAACCUGCGAAUUCUGCUGUAUAUCUC [A3G C50G U58C]	0.3
UAGCAGGGGGCCACAGAAGAAGCGUUCACGUCGCAGCCCCUAUCUGAUUCUGGUGAAUCUGCGAAUUCUGCUGUAUAUCUC [A3G C17A G42A A45U]	0.19
UAGCAGGGGGCCACAGCAGAAGAGCUCACGUCGCAGCCCCUGUCAGAUUCUGGUGAAUCUGCGAACUCUGCUGUAUAUCUC [A3G C23A U25C U66C]	0.22
UAGCAGGGGGCCACAGCAGAAGCGUUCAUGUCGCAGCCCCUGUCAGGUUCUGGUGAGUCUGCGAAUUCUGCUGUAUAUCUC [A3G C29U A47G A57G]	0.38
UAGCAGGGGGCCACAGCAGAAGUGUUCACGUCGCAGCCCCUGUCAGAUUCUGGUGAAUCUGCGAAUUCUGCUGUAUCUCUC [A3G C23U A77C]	0.2
